Here are results for 17 molecules from patent publication US7763623B2, “Heterocycles as nicotinic acid receptor agonists for the treatment of dyslipidemia” (Schering Corporation, priority 2006, dated 2010).

pEC50: −log10 of the molar value.

For this assay, the target named is recombinant human nicotinic acid receptor (NAR) (Homo sapiens, UniProt Q8TDS4). The experiment in a line: inhibition of forskolin-stimulated cAMP accumulation in CHO cells (MesoScale Discovery cAMP detection kit). As to conditions: CHO cells expressing recombinant human NAR, 30 minutes at room temperature. It is filed as cell-based. The procedure:
The nicotinic acid receptor agonist activity of compounds 1-285 was determined by following the inhibition of forskolin-stimulated cAMP accumulation in cells using the MesoScale Discovery cAMP detection kit following the manufacturer's protocol. Briefly, Chinese Hamster Ovary (CHO) cells expressing recombinant human nicotinic acid receptor (NAR) were harvested enzymatically, washed 1× in phosphate buffered saline (PBS) and resuspended in PBS containing 0.5 mM IBMX at 3×10^6 cells/mL. Ten μL of cell suspension was added to each well of a 384-well plate which contained 10 μL of test compounds. Test compounds were diluted with PBS containing 6 μM of forskolin. Plates were incubated for 30 minutes at room temperature after the addition of cells. Lysis buffer containing cAMP-Tag was added to each well (10 μL/well) as per the manufacturer's protocol. Plates were then incubated from 45 minutes to overnight. Prior to reading, 10 μL of read buffer was added to each well, and the plate was read in a Sector 6000 plate imager. The signal was converted to cAMP concentration using a standard curve run on each plate. Compound EC50 values were determined from concentration gradients of test compounds.
On the technique in general: Cyclic AMP is a second messenger, typically raised through Gs and lowered through Gi signalling.

Chain of UniProt Q8TDS4 (Q8TDS4 whole entry): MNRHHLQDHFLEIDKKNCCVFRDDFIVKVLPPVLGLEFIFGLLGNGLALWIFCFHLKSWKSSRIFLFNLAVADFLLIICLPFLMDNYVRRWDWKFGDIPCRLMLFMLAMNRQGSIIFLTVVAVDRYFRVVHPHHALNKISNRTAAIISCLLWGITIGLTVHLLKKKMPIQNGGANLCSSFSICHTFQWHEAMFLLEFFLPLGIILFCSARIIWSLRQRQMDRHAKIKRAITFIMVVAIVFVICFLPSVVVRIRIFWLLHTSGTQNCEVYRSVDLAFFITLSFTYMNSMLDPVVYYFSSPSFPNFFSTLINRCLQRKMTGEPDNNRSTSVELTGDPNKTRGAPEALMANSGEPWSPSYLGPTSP

Turning to `CCc1cc(=O)oc2nc(O/N=C(\C)c3cnccn3)[nH]c(=O)c12` [Compound 55], the pEC50 (as a rule, the EC50 on a negative log10 scale, so that one unit is a factor of ten) is below 6.00. As to `CCCc1cc(=O)oc2nc(ON=C3CCC(F)(F)CC3)[nH]c(=O)c12` [Compound 282], the negative logarithm of the EC50 (pEC50) was below 6.00. Take `CCCc1cc(=O)oc2nc(ON=C3CCCCC3)[nH]c(=O)c12` [Compound 280]: the pEC50 was below 6.00.

As for `CCCc1cc(=O)oc2nc(O/N=C3\CCCc4ccccc43)[nH]c(=O)c12` [Compound 278], the pEC50 is below 6.00. On to `O=c1cc(CCC2CCCCC2)c2c(=O)[nH]c(ON=C3CCOCC3)nc2o1` [Compound 247], for which the pEC50 is below 6.00. For the molecule `CCc1cc(=O)oc2nc(O/N=C(\C)c3nccs3)[nH]c(=O)c12` [Compound 40], the pEC50 is below 6.00. In the case of `CC(C)(C)OC(=O)N1CCC(=NOc2nc3oc(=O)cc(CCC4CCCCC4)c3c(=O)[nH]2)CC1` [Compound 248], the pEC50 is below 6.00.

Regarding `O=C(OC1CCCC1)N1C2CCC1CC(=NOc1nc3oc(=O)cc(Cc4cccc5ccccc45)c3c(=O)[nH]1)C2` [Compound 130], the negative-log EC50 (pEC50) is below 6.00. For the molecule `O=c1cc(CCC2CCCCC2)c2c(=O)[nH]c(ON=C3CCC(C(F)(F)F)CC3)nc2o1` (centres unmarked) [Compound 262], the pEC50 is below 6.00. Turning to `CCOC(=O)N1C2CCC1CC(=NOc1nc3oc(=O)cc(Cc4cccc5ccccc45)c3c(=O)[nH]1)C2` [Compound 129], the pEC50 is below 6.00. With `CCc1cc(=O)oc2nc(O/N=C3\CCCc4sccc43)[nH]c(=O)c12` [Compound 65], the pEC50 was below 6.00.

`CCOC(=O)NC1CCC(=NOc2nc3oc(=O)cc(CCC4CCCCC4)c3c(=O)[nH]2)CC1` (centres unmarked) [Compound 238]: the pEC50 is below 6.00. Regarding `CCCc1cc(=O)oc2nc(ON=C3CCOCC3)[nH]c(=O)c12` [Compound 281], the pEC50 is below 6.00.

Consider `CCOC(=O)N1C2CCC1CC(=NOc1nc3oc(=O)cc(CCC4CCCCC4)c3c(=O)[nH]1)C2` [Compound 246], for which the pEC50 was below 6.00.

For the molecule `O=c1cc(Cc2cccc3ccccc23)c2c(=O)[nH]c(ON=C3CCCC3)nc2o1` [Compound 131], the negative-log EC50 (pEC50) was below 6.00.

For the molecule `O=c1cc(CCC2CCCCC2)c2c(=O)[nH]c(ON=C3CCC(F)(F)CC3)nc2o1` [Compound 258], the negative-log EC50 (pEC50) was below 6.00. Take `CCCc1cc(=O)oc2nc(ON=C3CCCC3)[nH]c(=O)c12` [Compound 279]: the pEC50 is below 6.00.
